Results published in the supplement of paper PMC3334620.
Over roughly 33,000 sequences, “E-score (-0.5 to 0.5)” has its median near -0.054; the highest 2% begin near 0.35. The list shows a part of the results.

Target: T1, Stb5 (UniProt P38699)
T1 sequence: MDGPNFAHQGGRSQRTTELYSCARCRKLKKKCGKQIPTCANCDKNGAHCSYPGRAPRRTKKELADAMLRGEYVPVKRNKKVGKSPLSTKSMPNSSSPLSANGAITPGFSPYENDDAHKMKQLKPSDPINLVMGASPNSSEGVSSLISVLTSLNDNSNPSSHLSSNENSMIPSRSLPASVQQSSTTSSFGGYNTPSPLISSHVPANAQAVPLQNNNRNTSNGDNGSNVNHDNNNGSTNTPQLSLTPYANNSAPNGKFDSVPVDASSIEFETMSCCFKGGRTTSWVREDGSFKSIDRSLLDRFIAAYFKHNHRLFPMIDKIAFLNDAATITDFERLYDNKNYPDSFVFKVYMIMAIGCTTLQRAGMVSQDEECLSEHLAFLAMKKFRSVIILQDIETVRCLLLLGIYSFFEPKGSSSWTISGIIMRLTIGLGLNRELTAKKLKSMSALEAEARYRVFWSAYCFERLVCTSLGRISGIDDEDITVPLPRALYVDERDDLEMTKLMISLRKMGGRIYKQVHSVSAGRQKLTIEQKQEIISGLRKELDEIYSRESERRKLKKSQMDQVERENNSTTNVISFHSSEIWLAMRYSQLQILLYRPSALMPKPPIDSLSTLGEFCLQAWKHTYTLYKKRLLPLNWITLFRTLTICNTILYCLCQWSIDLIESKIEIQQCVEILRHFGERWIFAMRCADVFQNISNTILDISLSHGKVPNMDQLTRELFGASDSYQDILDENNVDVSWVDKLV
Test: PBM E-score (8-mer binding enrichment) (E-score (-0.5 to 0.5)); higher = stronger / more preferred TF binding; most listed sequences are background and not binding sites
Details: protein concentration: 200 nM; construct: GST-full length
Method in brief: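 GST-tagged yeast TFs (full-length or DNA-binding domain) were made by PURExpress in vitro transcription/translation and applied at about 100-200 nM to universal all-10-mer Agilent arrays. The arrays were made double-stranded by primer extension, on fresh or once-stripped slides. Bound protein was detected with fluorescent anti-GST, and scans were normalised with masliner. Each ungapped eight-base word, pooled with its reverse complement, received an E-score (modified Wilcoxon-Mann-Whitney statistic) from the Universal PBM Analysis Suite.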

Row | Sequence | PBM E-score
1 | GCCTCCAC | -0.032
2 | CTGCACGA | -0.0921
3 | AAACGTTT | 0.0205
4 | ACCGATCC | 0.282
5 | AGCTCTCC | -0.325
6 | TACAACCA | -0.0508
7 | CTTTTATA | 0.0541
8 | ACGAATCC | -0.0664
9 | CCTTACAG | -0.109
10 | CCGCAGTC | 0.188
11 | ACGGACGA | 0.137
12 | TTGATCAA | -0.16
13 | GTTGCGGA | 0.121
14 | CAGTAACA | -0.0341
15 | CCAAGCCC | 0.0337
16 | AGCATCTG | -0.148
17 | ATGTTTTA | -0.165
18 | TAACCTGA | -0.0904
19 | AGAGAGCC | -0.32
20 | AGTGCACA | -0.135
21 | AATATGGC | 0.0393
22 | AGCCTGTC | -0.22
23 | CAAAATGC | 0.0603
24 | CCATGAGA | 0.0278
25 | GCTATGTA | -0.0808

Row | Sequence | PBM E-score
26 | AGGGTTAT | -0.137
27 | ATCAGTGG | -0.194
28 | GTGGGATA | 0.0707
29 | ACATTGGG | -0.158
30 | ACCAGGCA | -0.187
31 | AGAGGGCC | -0.0658
32 | AAATTGGG | -0.181
33 | ATTCTACA | -0.142
34 | TACTTAGA | -0.235
35 | CTAACGCC | 0.316
36 | CACCCGGA | 0.218
37 | CCCCGGAC | 0.284
38 | CAACGGAG | 0.244
39 | CTTACAGC | -0.094
40 | CCACTCAG | -0.204
41 | CTTACTAC | -0.121
42 | ATCGCCCC | 0.101
43 | CAGGACTG | -0.144
44 | GGAGGGAC | -0.0156
45 | ATTTTTGG | -0.077
46 | CACACCCA | -0.0756
47 | ACACTAAC | -0.147
48 | ACTAGTGC | -0.15
49 | CGATAGAC | 0.0882
50 | GTCTCCAA | -0.179

Row | Sequence | PBM E-score
51 | GTACTAAA | 0.127
52 | CCTCCTAC | -0.0946
53 | CCGACGTA | 0.27
54 | CCTTCATA | 0.00757
55 | GCCCCGCC | 0.403
56 | CGTCGTGA | 0.0154
57 | ACTAACGA | -0.0378
58 | AGGGGACT | -0.0836
59 | GAGTTAGC | -0.059
60 | ACCTTTGG | 0.0325
61 | GTGCGCAA | -0.142
62 | CGAACGCG | 0.149
63 | TCCCTCGA | -0.179
64 | CGTTTCGC | 0.121
65 | GCAACTAA | 0.144
66 | GTCGTCTA | -0.132
67 | AGGCCTCA | -0.264
68 | CAAGAAGC | -0.0788
69 | AGTAAACA | -0.101
70 | CAGCATGG | -0.063
71 | GAAATACC | 0.275
72 | GAAGCCCC | 0.12
73 | AGGAGAGG | -0.261
74 | AGGCAGGG | -0.206
75 | ATAGGAAT | -0.159

Row | Sequence | PBM E-score
76 | CAGCGAGC | -0.0812
77 | ACGCACCC | -0.126
78 | ATCAGAAT | -0.0846
79 | CTCTGTAC | -0.233
80 | CTACGTTC | -0.206
81 | AGCCCGCC | 0.359
82 | GAACGCTC | -0.233
83 | AGCAATCA | -0.123
84 | ATATGACC | 0.323
85 | CTTCATGA | -0.0192
86 | ATGTGCCC | 0.0009
87 | GAGAACGC | -0.113
88 | CCTGAGTC | -0.00996
89 | ACCATGTA | -0.0728
90 | ATCACCGG | 0.37
91 | ATTCCGTA | -0.00939
92 | ATTTGGTG | -0.258
93 | CTCGCCAA | -0.177
94 | CCGCATAG | 0.177
95 | GCTTAAAC | -0.0538
96 | AGGAGCAG | -0.206
97 | CATTACTC | 0.0649
98 | AAACCATT | -0.181
99 | GTAATGAA | -0.0616
100 | AAGTCCCT | -0.209

Row | Sequence | PBM E-score
101 | GGAGAAGA | -0.113
102 | TCCCCTCA | -0.249
103 | CTTTGCTA | -0.202
104 | GCGTTTAC | -0.00093
105 | CGCCGTAA | 0.333
106 | CTGCTCGA | -0.287
107 | AAACTCGA | -0.0676
108 | CGCGTGCC | 0.00499
109 | CAGAAGAC | -0.187
110 | AGGTCCAG | -0.156
111 | TAGCCCCA | 0.0327
112 | ACCATATG | -0.223
113 | ACACATGG | -0.217
114 | CCCCCTCC | -0.137
115 | CTAAGGAA | -0.196
116 | GTGAGGCA | -0.152
117 | AGCGTTCG | -0.194
118 | ATAGGGCG | 0.122
119 | ATAAGCCA | -0.107
120 | CGCCCACA | 0.109
121 | ACAGGTGG | -0.058
122 | ATGCTACA | -0.336
123 | CCTGCACG | -0.0981
124 | AAGGTAGC | -0.166
125 | CGTAAGAA | -0.0783

Row | Sequence | PBM E-score
126 | CTATTGAC | -0.129
127 | AGAGCTGC | -0.106
128 | AGTATAGC | -0.0654
129 | GATAATCC | 0.258
130 | CCGCCGGA | 0.309
131 | GCTCACGA | -0.197
132 | GATTGTCC | 0.16
133 | ATGCTGTC | -0.0122
134 | ATGCGTGA | -0.193
135 | AACCAAGC | -0.0977
136 | AACCACGC | 0.0178
137 | ACAGTTAC | -0.0633
138 | CGGTCGGA | 0.313
139 | ACAATATC | -0.00888
140 | CTATGGTA | 0.0378
141 | GACCATAA | -0.0175
142 | CGCGTACA | -0.103
143 | AGTGCGTC | 0.061
144 | TAAAGGAA | 0.0745
145 | CGTAGACC | 0.0176
146 | TGCATAAA | -0.183
147 | AAGACTCT | -0.223
148 | GGTTGTCA | -0.0232
149 | AGGACCTC | -0.259
150 | GCATTTGA | 0.0447

Row | Sequence | PBM E-score
151 | ACTTCGTC | 0.00649
152 | AGTTCCGA | 0.374
153 | ACGGGGTA | 0.248
154 | CCGACTTC | 0.274
155 | ACTTGCCT | -0.18
156 | CACGAAGC | 0.0954
157 | GATGCGAC | 0.0208
158 | GTTTCCCA | -0.176
159 | AAAATTCC | 0.229
160 | CGCGGCAC | 0.288
161 | GTGGCGAA | 0.0266
162 | ACAGTCGT | -0.063
163 | GAACAGCA | -0.0955
164 | CCGAGGAC | 0.0394
165 | GAAACGTA | -0.0447
166 | ATGACAAC | -0.0645
167 | GCTCAACA | -0.167
168 | AAGCGACT | -0.294
169 | CTTAATCA | 0.0891
170 | ACGACATA | -0.313
171 | AGCAGCGA | 0.0908
172 | AACGTTGC | -0.0304
